Results published in paper PMC4242493.
The list shows a part of the results. The list includes weakly bound sequences.

Each sequence was assayed against MaxL homodimer (UniProt P61244) (assay: universal protein-binding microarray (PBM)). Settings: PBS-based mixture, 10 nM His-tagged protein dimer, 2% milk, 200 ng/uL BSA, 50 ng/uL salmon testes DNA, 0.02% TX-100; detection with Alexa 488 anti-His …; high values mean tight binding; most listed sequences are background and not binding sites; double strand, one strand shown.
Chain of UniProt P61244 (P61244 whole entry): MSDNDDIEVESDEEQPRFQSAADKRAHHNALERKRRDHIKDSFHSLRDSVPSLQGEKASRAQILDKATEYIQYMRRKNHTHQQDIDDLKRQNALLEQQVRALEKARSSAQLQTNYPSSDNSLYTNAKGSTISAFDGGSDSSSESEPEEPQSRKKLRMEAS

Sequence	binding signal (normalized occupancy)
GGATCGAA	0.0695
AATCGACT	0.0753
AGGACTTA	0.0758
TAAGCAAA	0.0761
TAACCGAA	0.0753
AGTTAATA	0.0765
CTCGCTGC	0.0727
AGATGCCA	0.0772
CTTATTTA	0.0763
CACGTATG	0.0833
GTCTGAAC	0.0742
CCGCTGCA	0.0719
TCACAGGA	0.0749
ATAGGCTA	0.0718
CGTCGGAG	0.0693
CCCGCAAC	0.0713
AGTGCCAC	0.0792
AGCTGACA	0.0754
CACGATGG	0.0884
GTTCTGAA	0.0695
CAGAATAA	0.079
ACATTTAA	0.0785
CGGGCACC	0.0692
CCGGGTTA	0.0708
AACTGCCG	0.0701

Sequence	binding signal (normalized occupancy)
CCCAACAA	0.0757
CGAAATCA	0.0721
CGTAGAAA	0.0757
AATAGTTG	0.0772
GAGTTAGA	0.073
CTTTTGCA	0.0687
AGGCACTG	0.0696
ACCATTTA	0.0797
AATATCTC	0.0744
ATTTTTCG	0.0793
CACCACGG	0.0774
AAATCACA	0.0795
CGTCTCAC	0.079
GATTTTAA	0.0718
TAAAAATA	0.0717
AAGTGGAT	0.0727
AACCGAGA	0.0705
AATCCCAA	0.0748
GGAAACAA	0.0763
ACTCTACG	0.0734
ATACAAAA	0.078
GCGAGGCA	0.0757
CTTCAAAA	0.0709
CATCATAG	0.0846
CAGTACAG	0.0802

Sequence	binding signal (normalized occupancy)
ACGCTAGG	0.0754
TCTGCTCA	0.0738
CGTCTTGA	0.0702
ATTGGCTC	0.076
ACCCTCGC	0.0757
GGATAACA	0.0808
ACCTAATA	0.0777
TTGCGAAA	0.0693
AAAGTTCA	0.0739
CCAGTCGA	0.0666
AAGTTACC	0.0714
ATAGCCTC	0.0788
AAAAAAAC	0.0784
GCGTCGCC	0.07
TACGGCGA	0.0706
CAGCACCG	0.0748
AAATTACT	0.0683
CGTATCCA	0.0765
CAGCTACC	0.0756
GCGCCGTA	0.0682
ACGACTAA	0.0727
AACCCGGA	0.0664
ACTGGGTC	0.0711
CGGTGTTA	0.0761
AGCAGCTA	0.0659

Sequence	binding signal (normalized occupancy)
AGATGGGC	0.0703
ACGCATAG	0.0818
AGCCTCTG	0.0661
ACGAGACG	0.0793
CGACGGCC	0.0667
AGAAGGCC	0.0678
CTACCCGC	0.0717
CGACATGC	0.0992
GACTAACC	0.0778
ACAACGAC	0.0726
ATGAGGAG	0.0866
AATGTCTA	0.0754
CCAGCTTA	0.071
CCAGACTA	0.071
ACCTAGAG	0.0718
CACTATGG	0.0772
CGTCGTGC	0.0826
GGCTAATA	0.0753
CGTTAAAG	0.0759
CGAGGCCC	0.0761
GTTGGCTA	0.0693
ATGCTCTA	0.0811
GCGGCCGC	0.0707
CAATTGGA	0.0699
GGAACGAC	0.0779

Sequence	binding signal (normalized occupancy)
ACAAAGCC	0.0706
ACCCGCGC	0.083
ATAGATAT	0.0828
GTGTTCAA	0.0805
ACTTACCT	0.0757
AAATCATG	0.0871
CAGTAACC	0.0731
AATCTACC	0.0765
GAGTACCC	0.0768
GCCTAAGA	0.0739
AAATATGC	0.0807
GCTCTAAA	0.0685
ATTTGAGA	0.0896
CCTTTCCC	0.0725
AGTGGTTG	0.0748
CAACCCCA	0.0822
AATCCTCA	0.0757
TCAGCAGA	0.0717
CCATAGAG	0.0709
AAATTCGA	0.0696
CATCACGA	0.0811
AATATGTA	0.0801
CTAGCGGC	0.0675
GCTCGTAC	0.0774
AAAGAGGA	0.0738

Sequence	binding signal (normalized occupancy)
GCGTGGTA	0.111
ACACCTGT	0.0912
AGCGACCG	0.0667
AGGGACTG	0.07
GATGGCCA	0.0755
TCGGACGA	0.0696
CAGACCCG	0.07
TACTTACA	0.0777
AGTTTGAT	0.0736
AGGACGCG	0.0691
GCTGCGGA	0.0698
CCACGGTA	0.0754
CAACCTAC	0.0774
TCGGTAAA	0.0756
CAGTGTCC	0.0763
ATAGGTTG	0.0765
ACTCGGCG	0.0704
GTCGCCCA	0.0715
GAACCCCC	0.0764
ACAGAGGG	0.0744
AGCACAAT	0.0813
ACGGTCCT	0.0698
ATGAGTCA	0.082
ATCCCACA	0.0819
CACGGTAG	0.0752

Sequence	binding signal (normalized occupancy)
AATGGTGT	0.0809
ATGGCGGA	0.0751
AAACGTCC	0.0718
AGGGCGCA	0.0704
ACCGTTAC	0.0748
TACCCGCA	0.0749
GGGCCCCC	0.0684
CTCGGTCA	0.0733
ACTTGGTG	0.0764
AGATCTAC	0.08
CACAGTGA	0.0715
GCCGGCGC	0.0701
GCAAGATA	0.0778
TCTGAAAA	0.0722
GCCTGGTA	0.077
TATTCGGA	0.0723
CAGCTGAC	0.0699
AGAACGCG	0.0788
CCTACTAC	0.0776
ATTATGCA	0.0808
ACCAATAT	0.0794
ACTCAACA	0.0776
